This is an account of results in the supplement of paper PMC10126150.

Values marked as one replicate rest on one cluster of the flow cell; about a third of the high ones do not repeat.

The test system of this series is ATP. Kind of series: switch fluorescence ratio, 500 uM ATP over buffer (Cy3 cluster intensity, sum of 5 cycles each) (fold (ratio)); higher = stronger signal-on switching upon ATP binding; sequences stand for … in TCGTCGGCAGCGTCAGATGTGTATAAGAGACAGTTTTTTTTTTTTTTTTTTTTTTTTT…TC. As to conditions: aptamer strand: ATP DNA aptamer (quencher-CACCTGGGGGAGTATTGCGGAGGAAGG + anchor), 100 nM annealed; ATP concentration: 500 uM; one replicate. In short, it runs like this:
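Exposure to 500 uM ATP lasted 15 min at 22 °C before imaging, and a selection-buffer image was taken beforehand, for Cy3-labelled switching-strand clusters on a modified Illumina MiSeq flow-cell annealed to 100 nM quencher-labelled ATP aptamer. Five buffer/ATP cycles were run with NaOH stripping and re-annealing between them. The fluorescence ratio per cluster is summed target-cycle over summed buffer-cycle Cy3 intensity, averaged per switch-domain sequence. Clusters outside 100-1000 RFU were excluded.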

Take GGTATCAACT: the switch fluorescence ratio stood at 1.01.

Turning to TCATATGGAA, the switch fluorescence ratio worked out at 1.06.

As to TCTATGGGTA, the switch fluorescence ratio turned out to be 1.02.

Take TTCCGTCGCT: the switch fluorescence ratio was determined as 1.04.

In the case of CTGGGCACAA, the switch fluorescence ratio came out at 1.01.

In the case of CGATTATGT, the switch fluorescence ratio was found to be 1.02.

As for TCAACTGCAT, the switch fluorescence ratio turned out to be 1.15.

As to GATGTTGCCT, the switch fluorescence ratio turned out to be 1.06.

With CCGCTTAACG, the switch fluorescence ratio is 2.23.

As for GGACTGGACT, the switch fluorescence ratio is 1.01.

Take GCGGTTATTC: the switch fluorescence ratio is 1.03.

For the sequence CACCAACCCA, the switch fluorescence ratio stood at 1.15.

For ACGTGTATAC, the switch fluorescence ratio came to 1.81.

Take GGTCAGGCAA: the switch fluorescence ratio amounted to 1.06.

As for TCAGTGGTAG, the switch fluorescence ratio came out at 1.

In the case of GATATTCTA, the switch fluorescence ratio was found to be 1.03.

Consider AATAGCGGGA, for which the switch fluorescence ratio stood at 0.999.

Turning to TAGCGATGTA, the switch fluorescence ratio worked out at 1.04.

Take AACTTCTATA: the switch fluorescence ratio came out at 1.03.

With AGACGCCCTC, the switch fluorescence ratio worked out at 1.12.

As for AGGCGGGTTC, the switch fluorescence ratio worked out at 1.03.

With TACACGATTG, the switch fluorescence ratio came to 1.06.

With CGTGTCTTGG, the switch fluorescence ratio amounted to 1.01.

On to CCTGAATCTT, for which the switch fluorescence ratio is 1.02.

With CGTTTAATGT, the switch fluorescence ratio was 1.09.

In the case of GGGTGGTG, the switch fluorescence ratio amounted to 1.

For AATTATATTG, the switch fluorescence ratio turned out to be 0.998.

In the case of AGACGCGGCT, the switch fluorescence ratio worked out at 1.01.

Consider TTGTCTAGTG, for which the switch fluorescence ratio was found to be 0.958.

For AAACGGAGG, the switch fluorescence ratio is 0.981.

As for GCGCATAGGC, the switch fluorescence ratio came out at 1.64.

Consider TGATCCGTTA, for which the switch fluorescence ratio was 1.04.

Take TGCGTTGAG: the switch fluorescence ratio amounted to 0.989.

For the sequence CAAGTAGCGG, the switch fluorescence ratio worked out at 1.02.

Regarding GTCCTACTTT, the switch fluorescence ratio amounted to 1.01.

TTACTCCCTA: the switch fluorescence ratio came out at 1.52.

Regarding AATGCTAGTA, the switch fluorescence ratio amounted to 1.01.

Turning to ATGAGTCGTC, the switch fluorescence ratio amounted to 0.956.

TCGAAGCATT: the switch fluorescence ratio was determined as 2.9.

For CTTGAGTTGT, the switch fluorescence ratio came to 1.01.

As to GTAAGTTATT, the switch fluorescence ratio was found to be 1.14.

Regarding CAATAAGTGT, the switch fluorescence ratio stood at 0.998.

In the case of GGGTAGTCAA, the switch fluorescence ratio amounted to 0.991.

With TACAGGACT, the switch fluorescence ratio is 1.1.

As for TGGAACAGTT, the switch fluorescence ratio stood at 0.98.

Take TTGAGGAGGT: the switch fluorescence ratio stood at 0.917.

Take TGGCTCACTC: the switch fluorescence ratio was 1.03.

Turning to GGCGACGAGC, the switch fluorescence ratio was determined as 0.965.

On to GAGGGGAATA, for which the switch fluorescence ratio stood at 0.97.

For GCTCATTAT, the switch fluorescence ratio came to 0.985.

Regarding CGCCAGAGGC, the switch fluorescence ratio worked out at 1.05.

For the sequence CAGTAGTTCC, the switch fluorescence ratio is 1.08.

Take CATCCGGG: the switch fluorescence ratio amounted to 1.4.

On to TAGTCGCACC, for which the switch fluorescence ratio stood at 1.05.

With GGTGAACATT, the switch fluorescence ratio was 1.01.

Consider TATTGACGCT, for which the switch fluorescence ratio was 1.02.

ACATATGTGT: the switch fluorescence ratio amounted to 1.01.

For CTGGGGACTG, the switch fluorescence ratio was found to be 0.991.

Consider ATACACCATG, for which the switch fluorescence ratio was 1.09.

With ATTGCTTAGG, the switch fluorescence ratio stood at 0.999.

Take TTCATACTAA: the switch fluorescence ratio worked out at 0.992.

Take AGAATGGTAG: the switch fluorescence ratio amounted to 0.964.

Consider TAATAGGAA, for which the switch fluorescence ratio was found to be 0.926.

Regarding ATAACGTGCC, the switch fluorescence ratio came out at 1.1.

Turning to CTGACGGGAC, the switch fluorescence ratio stood at 3.78.

On to GCATATAATA, for which the switch fluorescence ratio was determined as 0.976.

As to TTCATGTCTC, the switch fluorescence ratio was 0.986.

In the case of GCACGTTGGG, the switch fluorescence ratio turned out to be 1.02.

As for AGCAGGGGTC, the switch fluorescence ratio turned out to be 1.06.

For GGTGCGTTCG, the switch fluorescence ratio worked out at 0.966.

As to TGTGCCAAGA, the switch fluorescence ratio came out at 0.988.

CCTAACCGCG: the switch fluorescence ratio amounted to 2.23.

As for AAGTATGTGG, the switch fluorescence ratio was 0.996.

In the case of AGCCTACCTT, the switch fluorescence ratio was 1.05.

TCAGCAGCTG: the switch fluorescence ratio turned out to be 1.01.

Take TAATAGCGAC: the switch fluorescence ratio was 1.06.

As to CCCCACCCGG, the switch fluorescence ratio is 1.18.

On to TTATTGATGA, for which the switch fluorescence ratio turned out to be 1.01.

Take TCCCGGGACC: the switch fluorescence ratio is 1.02.

GGTGCGATG: the switch fluorescence ratio worked out at 0.975.

As to CAAACTTGT, the switch fluorescence ratio came to 1.07.

As to AAGTTCTGCT, the switch fluorescence ratio turned out to be 0.97.

Consider GCGTGATAAC, for which the switch fluorescence ratio worked out at 1.06.

Consider GATCTACCTG, for which the switch fluorescence ratio was 1.01.

As to CAGCGGTGCG, the switch fluorescence ratio is 1.08.

As to TCTACATTTT, the switch fluorescence ratio is 0.985.

Consider CAAATATGGT, for which the switch fluorescence ratio amounted to 1.01.

As to GGTGTTAGCT, the switch fluorescence ratio came out at 1.05.

As to CTTAACGTTA, the switch fluorescence ratio was 1.05.

Regarding GTAAGGCTGC, the switch fluorescence ratio was 0.866.

For ATACGCCAAC, the switch fluorescence ratio turned out to be 1.76.

As for CCTAACTTAT, the switch fluorescence ratio stood at 1.01.

As to TGGACTGTGG, the switch fluorescence ratio is 0.991.

Regarding TTGACTTTAG, the switch fluorescence ratio stood at 0.968.

For the sequence GTATGCCGCG, the switch fluorescence ratio amounted to 0.992.

Take TGTACTAAAA: the switch fluorescence ratio was determined as 0.992.

In the case of GGTGGGTGAT, the switch fluorescence ratio is 0.986.

Turning to GTCTAATAAG, the switch fluorescence ratio stood at 0.977.

In the case of GAAAGAGTTT, the switch fluorescence ratio was determined as 1.02.

In the case of AATTCTAAAT, the switch fluorescence ratio came to 0.95.

For TCCTTAGAGG, the switch fluorescence ratio was 1.02.

On to CGATCGTTTT, for which the switch fluorescence ratio was determined as 0.97.

For the sequence TATAACAAAG, the switch fluorescence ratio was found to be 1.01.

On to TGACAATTCG, for which the switch fluorescence ratio came to 1.

With CGATTTGTTC, the switch fluorescence ratio was 0.995.

As to CAACTCATTT, the switch fluorescence ratio was found to be 1.04.

Take GGACGCGAGA: the switch fluorescence ratio was found to be 1.16.

As to AGTGTCGATT, the switch fluorescence ratio was found to be 1.01.

For CAATCGACCG, the switch fluorescence ratio worked out at 1.02.

For the sequence GCAAAACTAT, the switch fluorescence ratio was 1.01.

On to TGGCCTCGC, for which the switch fluorescence ratio was 1.03.

On to ACAATTTAAG, for which the switch fluorescence ratio was determined as 1.07.

With CCATGAATTG, the switch fluorescence ratio was 0.939.

With ATGCATGGCG, the switch fluorescence ratio was found to be 1.04.

With GACAATCGCA, the switch fluorescence ratio was found to be 1.37.

GATAATCCA: the switch fluorescence ratio turned out to be 0.996.

As for GAATCCTATT, the switch fluorescence ratio was 0.974.

For TAGTCATTTT, the switch fluorescence ratio was 0.996.

As for GACCTGTTGA, the switch fluorescence ratio is 0.983.

GTAGGGCCGT: the switch fluorescence ratio turned out to be 1.
